# In PubChem BioAssay AID1745853 (National Center for Advancing Translational Sciences (NCATS), 2022):
# Values joined by “and” are separate entries in the source; they are usually repeats but may differ in a detail not shown here. Equal values may be shown once. The list shows a part of the results. These are further read-outs of the screen, such as a control signal, another cell line or another target. No call is given for them.
# Key:
# Assay in all cases: Primary Screen for Target Class Profiling of Small Molecule Inhibitors of Methyltransferases
# [1] = target: Glycine N-methyltransferase (Homo sapiens) (UniProt Q14749); details: purified enzyme, MTase-Glo SAH luminescence; measured here: GNMT inhibition; at 40 µM; stronger effect = lower value
# How it was run: (§1)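 Each enzyme was reacted with SAM and its substrate, with compounds tested once at 40 uM; SAH formed was read by MTase-Glo luminescence.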
# [2] = target: Guanidinoacetate N-methyltransferase (Homo sapiens) (UniProt Q14353); details: purified enzyme, MTase-Glo SAH luminescence; measured here: GAMT inhibition; at 40 µM; stronger effect = lower value
# How it was run: as §1
# [3] = target: Histamine N-methyltransferase (Homo sapiens) (UniProt P50135); details: purified enzyme, MTase-Glo SAH luminescence; measured here: HNMT inhibition; at 40 µM; stronger effect = lower value
# How it was run: as §1
# [4] = target: Nicotinamide N-methyltransferase (Homo sapiens) (UniProt P40261); details: purified enzyme, MTase-Glo SAH luminescence; measured here: NNMT inhibition; at 40 µM; stronger effect = lower value
# How it was run: as §1
# [5] = target: Phenylethanolamine N-methyltransferase (Homo sapiens) (UniProt P11086); details: purified enzyme, MTase-Glo SAH luminescence; measured here: PNMT inhibition; at 40 µM; stronger effect = lower value
# How it was run: as §1
# % is set by controls: 0 for no effect and ±100 for the full control effect.
Compound,"activity change, negative = inhibition [1]","activity change, negative = inhibition [2] [%]","activity change, negative = inhibition [3]","activity change, negative = inhibition [4] [%]","activity change, negative = inhibition [5] [%]"
COc1ccc(NC(=O)N2Cc3ccccc3-n3cccc3C2c2cccc(C)c2)cc1 (stereo unspecified),1.08%,-3.27,-5.03%,-8.07,-3.19
Cc1nnc2n1-c1sc(CCc3ccc(CC(C)C)cc3)cc1C(c1ccccc1Cl)=NC2C (stereo unspecified),-7.61%,4.25,-1.34%,-50.6,3.41
C[N+](C)(C)CC#CCN1CCCC1=O,-14.5%,-1.49,-1.76%,-11.3,3.03
COc1cc2c(cc1Oc1ccccc1)NC(=O)C21CCN(c2nc(C)cnc2C)CC1,-12.9%,-11.9,-6.48%,-11.2,-6.91
NC(=O)c1ccc(OCC(O)CN2CC=C(c3ccc(F)cc3)CC2)cc1 (stereo unspecified),8.56%,10.3,-1.52%,-8.97,-4.75
CCOc1ccc(C2c3cccn3-c3ccccc3CN2C(=O)Nc2cc(C)cc(C)c2)cc1 (stereo unspecified),-5.76%,1.29,-3.41%,-3.56,-0.956
COc1ccc(NC(=O)N2Cc3ccccc3-n3cccc3C2c2ccc(C)cc2)cc1OC (stereo unspecified),8.99%,0,7.51%,1.91,2.61
Clc1ccc([C@]23CNC[C@H]2C3)cc1Cl,0.275%,1.75,-15.6%,-12,-88.6
O=C(Nc1ccc(F)cc1)N1Cc2ccccc2-n2cccc2C1c1ccc(F)cc1 (stereo unspecified),0.543%,2.16,0.731%,-1.22,5.78
COc1ccccc1NC(=O)N1Cc2ccccc2-n2cccc2C1c1ccc(SC)cc1 (stereo unspecified),1.17%,0.553,-0.65%,1.79,6.43
COc1ccn(C)c(=O)c1C#N,–,8.76,–,-3.74,8.3
COc1ccc(C2c3cccn3-c3ccccc3CN2C(=O)NCc2ccc(F)cc2)cc1 (stereo unspecified),11.1%,0,8.28%,8.16,3.56
CCOC(=O)CC1(NC(=O)N2Cc3ccccc3-n3cccc3C2c2cccs2)CCCCC1 (stereo unspecified),9.75%,0,8.1%,2.91,2.97
Cc1cc(C)cc(NC(=O)N2Cc3ccccc3-n3cccc3C2c2ccccc2)c1 (stereo unspecified),6.42%,0,-1.7%,0.15,3.49
CCC1c2cccn2-c2ccccc2CN1C(=O)Nc1cc(F)ccc1F (stereo unspecified),-1.52%,0,-3.81%,-8.13,-0.496
CCOC(=O)NC(C)(C)Cc1ccc(Cl)cc1,-3.81%,-3.6,12.2%,-13.3,-0.24
CCOC(=O)Cc1ccc(NC(=O)N2Cc3ccccc3-n3cccc3C2CC)cc1 (stereo unspecified),-4.04%,0,-5.8%,-1.68,0.812
NC(=O)CN1CC(O)CC1=O (stereo unspecified),-2.1%,4.44,-0.489%,-6.53,6.08
COc1ccccc1-c1cc([C@H]2CN3CC[C@H]2C[C@@H]3CNC(=O)N2CCOCC2)n(C)n1,-0.906%,1.72,-0.276%,-0.153,-5.88
Cc1cccc(C2c3cccn3-c3ccccc3CN2C(=O)NCc2ccco2)c1 (stereo unspecified),3.75%,3.78,-2.8%,-4.47,1.04
COC1C=CC23c4cc5c(cc4COC2(O)CN(C)C3C1)OCO5 (stereo unspecified),3.22%,-0.247,8.92%,-13.7,3.35

Compound,"activity change, negative = inhibition [1]","activity change, negative = inhibition [2] [%]","activity change, negative = inhibition [3]","activity change, negative = inhibition [4] [%]","activity change, negative = inhibition [5] [%]"
CC(C)(C)CC(=O)N1C[C@@H]2C[C@H](C1)c1ccc(NC(=O)c3ccco3)c(=O)n1C2,-10.7%,-2.75,-3.86%,-4.98,-1.79
CCOC(=O)c1ccccc1NC(=O)N1Cc2ccccc2-n2cccc2C1c1cccs1 (stereo unspecified),2.66%,0.724,1.02%,0.132,6.07
CC(C)C(=O)O[C@H]1[C@@H]2[C@H](C)C(=O)O[C@@H]2C[C@@H](C)[C@@H]2C=CC(=O)[C@]21C,-8.27%,-5.33,1.58%,-13,-11.5
COc1ccc(OC)c(NC(=O)N2Cc3ccccc3-n3cccc3C2c2cc(F)cc(F)c2)c1 (stereo unspecified),10.4%,5.3,10.5%,4.17,5.03
CC(=O)OC1CC(O)C(C)(C)C2CC(OC(C)=O)C3(C)C(CCC4(C)C(c5ccoc5)C(=O)C5OC543)C12C (stereo unspecified),-2.17%,2.49,-1.63%,-11.4,1.88
CCc1ccc(C2c3cccn3-c3ccccc3CN2C(=O)Nc2ccc(C)cc2C)cc1 (stereo unspecified),9.57%,2.95,3.11%,3.04,7.54
O=C(NCc1ccccc1)N1Cc2ccccc2-n2cccc2C1c1ccc(F)cc1 (stereo unspecified),0.539%,0,4.99%,3.96,7.37
COCCCNC(=O)N1Cc2ccccc2-n2cccc2C1c1ccccc1 (stereo unspecified),13.3%,1.57,3.95%,6.99,10.5
Cc1cccc(C2c3cccn3-c3ccccc3CN2C(=O)Nc2ccc(C)cc2C)c1 (stereo unspecified),4.77%,0.339,2.46%,-0.655,-0.429
COc1ccc(NC(=O)N2Cc3ccccc3-n3cccc3C2C)cc1OC (stereo unspecified),-0.059%,3.77,-1.46%,-5.64,1.09
COc1ccc(NC(=O)N2Cc3ccccc3-n3cccc3C2c2ccccc2C)c(OC)c1 (stereo unspecified),9.19%,0.061,3.45%,-1.17,4.16
COC(=O)c1ccc(Cl)cc1NC(=O)N1Cc2ccccc2-n2cccc2C1c1ccccc1 (stereo unspecified),4.36%,-1.11,2.11%,-2.42,-0.326
CCOc1ccc(NC(=O)N2Cc3ccccc3-n3cccc3C2c2ccc(OC)c(OC)c2)cc1 (stereo unspecified),7.96%,4.14,3.27%,-0.791,3.63
COC(=O)C12C(=O)C(C)(O)C(=O)C1(C)C(C)=CC1C3(C=O)CCC(OC(C)=O)C(C)(C)C3CCC12C (stereo unspecified),-2.86%,-3.37,0.708%,-16.4,1.92
CCOC(=O)CNC(=O)N1Cc2ccccc2-n2cccc2C1c1ccc(OC)cc1 (stereo unspecified),7.5%,1.43,-1.58%,-1.48,0.808
C[C@H]1O[C@@H](n2cnc3c(N)ncnc32)C[C@@H]1O,-7.54%,-19.1,4.32%,-19.1,-5.97
O=C(NC1CCCC1)N1Cc2ccccc2-n2cccc2C1c1ccc(F)cc1 (stereo unspecified),-0.019%,0,1.22%,-7.16,4.57
Cc1ccc(C2c3cccn3-c3ccccc3CN2C(=O)Nc2ccccc2F)cc1 (stereo unspecified),-1.76%,0,2.94%,2.04,4.92
c1ccc(C2(c3ccccc3)OC[C@@H]([C@H]3CCCCN3)O2)cc1,-0.892%,-4.12,-7.02%,-16.1,-12.2
C/C=C(\C)C(=O)OC1C2C3(C)CCC(OC4CC(OC)C(OC5OC(C)C(O)C(OC)C5O)C(C)O4)CC3CCC23OC32CCC(C(C)=O)C2(C)C1OC(=O)/C(C)=C/C (stereo unspecified),3.98%,4.35,5.72%,-3.52,3.12
CN1CCC(c2c[nH]c3ccc(O)cc23)CC1,4.2%,10.6,-25%,-1.75,11.9

Compound,"activity change, negative = inhibition [1]","activity change, negative = inhibition [2] [%]","activity change, negative = inhibition [3]","activity change, negative = inhibition [4] [%]","activity change, negative = inhibition [5] [%]"
CC(=O)C1=C(O)[C@@H]2[C@H]3c4c[nH]c5cccc(c45)C[C@H]3C(C)(C)N2C1=O,–,-7.4,–,-19.2,-53.6
Cc1ccccc1C1c2cccn2-c2ccccc2CN1C(=O)NCCc1ccccc1 (stereo unspecified),9.94%,0.3,1.48%,-2.19,4.63
COc1ccc(OC)c(NC(=O)N2Cc3ccccc3-n3cccc3C2c2cccs2)c1 (stereo unspecified),9.77%,2.5,3.92%,7.32,9.16
CCOC(=O)c1ccccc1NC(=O)N1Cc2ccccc2-n2cccc2C1c1cc(F)cc(F)c1 (stereo unspecified),12.2%,0,11.8%,6.75,8.66
C1=C2CCCN[C@H]2[C@@H]2C[C@H]1[C@H]1CCCCN1C2,3.38%,8.65,1.05%,-9.23,4.32
O=C(Nc1ccc(F)cc1)N1Cc2ccccc2-n2cccc2C1c1ccccc1Cl (stereo unspecified),5.81%,0,5.6%,-6.09,-3.62
O=C(NCc1ccco1)N1Cc2ccccc2-n2cccc2C1c1ccc(F)cc1 (stereo unspecified),-0.984%,4.35,-2.13%,-1.06,0.847
CC(N)Cc1c[nH]c2ccc(OCc3cccs3)cc12 (stereo unspecified),1.6%,6.28,-19.5%,-13.1,-1.16
CC(=O)NCCCOc1ccc(C(=O)N2CCC(N3C(=O)CCc4ccccc43)CC2)cc1,1.97%,-2.83,0.932%,-16.6,-8.75
Oc1ccc2c3c1O[C@H]1c4[nH]c5ccccc5c4C[C@@]4(O)C(C2)N(CC2CC2)CCC314 (stereo partly specified),-8%,5.55,-3.19%,-5.29,6.14
CCC1c2cccn2-c2ccccc2CN1C(=O)Nc1ccc(Br)cc1F (stereo unspecified),-1.28%,0,-3.56%,-1.87,3.01
COc1ccc(C2c3cccn3-c3ccccc3CN2C(=O)Nc2cccc(Cl)c2C)cc1OC (stereo unspecified),11.4%,0.608,7.09%,0.96,7.67
C[C@H]1C(=O)O[C@H]2[C@H](O)[C@]34C5OC(=O)[C@]3(O[C@@H]3OC(=O)[C@H](O)C34[C@H](C(C)(C)C)[C@H]5O)C12O (stereo partly specified),3.22%,8.16,7.79%,-4.5,6.32
C=CC(C)(C)c1[nH]c2cccc3c2c1C[C@@H]1[C@@H]3[C@@H](OC(C)=O)[C@H](C)CN1C,3.6%,10.6,4.39%,-3.79,7.1
OCCCCC#Cc1cncc(OC[C@@H]2CCN2)c1,-1.6%,5.75,9.05%,-7.65,1.95
CC[C@@H](C(N)=O)N1CCCC1=O,3.85%,8.74,3.05%,-3.18,5.44
NCC(O)c1cc(O)c(O)cc1F (stereo unspecified),-27.4%,3.79,-0.757%,-8,31.6
Cc1cc(NC(=O)N2Cc3ccccc3-n3cccc3C2C)ccc1Br (stereo unspecified),9.13%,2.01,2.36%,4.61,7.03
Fc1cc(F)c2c(c1)C1C=CCC1C(c1cccnc1)N2 (stereo unspecified),4.55% and -21.3%,-4.11,6.58% and -9%,-16.1,-32.5
O=C(Nc1ccccc1C(F)(F)F)N1Cc2ccccc2-n2cccc2C1c1cccs1 (stereo unspecified),6.61%,0.045,1.54%,-0.04,6.03
COC(=O)CCNC(=O)N1Cc2ccccc2-n2cccc2C1c1cccs1 (stereo unspecified),1.18%,2.35,-9.41%,-5.06,-2.16
